Test results taken from publication PMC3630135, “Tenascin C Promiscuously Binds Growth Factors via Its Fifth Fibronectin Type III-Like Domain” (PLoS ONE, 2013).
Results are given in words; binding and its absence hold for the method and conditions named. Some binding calls cover weakened binding; strength is not graded here.

Sequences of proteins named here, by UniProt entry; tags and fusion partners are left off. Residues count along the entry.
GST-TNCIII3-5 (P24821, residues 801-1074): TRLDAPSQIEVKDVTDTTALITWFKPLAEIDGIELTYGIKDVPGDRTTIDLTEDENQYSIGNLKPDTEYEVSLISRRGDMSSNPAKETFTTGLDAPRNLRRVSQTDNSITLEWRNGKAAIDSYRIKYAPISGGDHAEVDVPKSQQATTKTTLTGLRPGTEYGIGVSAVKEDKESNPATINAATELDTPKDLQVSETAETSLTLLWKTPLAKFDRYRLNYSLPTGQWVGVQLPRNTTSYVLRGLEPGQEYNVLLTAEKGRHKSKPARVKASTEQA
GST-TNCIII3-4 (P24821, residues 801-983): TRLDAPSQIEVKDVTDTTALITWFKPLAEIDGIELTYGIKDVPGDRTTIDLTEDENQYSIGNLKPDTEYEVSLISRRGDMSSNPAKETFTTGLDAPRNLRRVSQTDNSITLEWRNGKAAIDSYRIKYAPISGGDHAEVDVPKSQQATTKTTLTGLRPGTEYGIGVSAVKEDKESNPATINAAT
GST-TNCIII3 (P24821, residues 801-891): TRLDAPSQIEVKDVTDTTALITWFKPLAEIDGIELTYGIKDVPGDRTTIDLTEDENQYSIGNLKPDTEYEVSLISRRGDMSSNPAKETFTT
GST-TNCIII4-5 (P24821, residues 891-1074): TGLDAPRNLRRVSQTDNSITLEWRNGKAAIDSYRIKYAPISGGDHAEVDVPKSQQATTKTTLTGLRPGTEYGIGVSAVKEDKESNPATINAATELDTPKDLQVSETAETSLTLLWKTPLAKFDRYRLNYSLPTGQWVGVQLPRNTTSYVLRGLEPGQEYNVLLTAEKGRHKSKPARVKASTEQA
GST-TNCIII4 (P24821, residues 891-983): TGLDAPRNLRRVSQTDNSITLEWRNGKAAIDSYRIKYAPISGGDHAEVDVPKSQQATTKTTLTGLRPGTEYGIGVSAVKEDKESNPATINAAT

Key:
Test in all cases: ELISA; GST-TNCIII domains (1 µM in PBS) coated, blocked with 2% BSA; 2 nM PDGF-BB, 1 h RT; detected with anti-PDGF-BB and HRP anti-mouse; both purified
GST-TNCIII4 (human) = GST-TNCIII4 (human) (UniProt P24821)
GST-TNCIII3 (human) = GST-TNCIII3 (human) (UniProt P24821)
GST-TNCIII3-5 (human) = GST-TNCIII3-5 (human) (UniProt P24821)
GST-TNCIII3-4 (human) = GST-TNCIII3-4 (human) (UniProt P24821)
GST-TNCIII4-5 (human) = GST-TNCIII4-5 (human) (UniProt P24821)

binding (GST-TNCIII4 (human)): binds | binding (GST-TNCIII3 (human)): no binding (tested: 2 nM) | binding (GST-TNCIII3-5 (human)): binds | binding (GST-TNCIII3-4 (human)): binds | binding (GST-TNCIII4-5 (human)): binds
B1: PDGF-BB (ligand, human, UniProt P01127 82-190, looked up)
chain: SLGSLTIAEPAMIAECKTRTEVFEISRRLIDRTNANFLVWPPCVEVQRCSGCCNNRNVQCRPTQVQLRPVQVRKIEIVRKKPIFKKATVTLEDHLACKCETVAAARPVT
notes: Two B chains by its name; source: bought: Gibco
